From article PMC12136788
The other results are listed elsewhere or left out.

B1: chr19:5611119:5611630:-|CDS|ENSG00000130254|control|control|control (ssRNA)
RNA: GGGAGUUCUACAGUCCGACGAUCGCCUCUAGCGAGGAGCUCGCAGAAGCACCCACGGAAGCCCCAAGCCCAGAAGCCAGAGAUAGCAAAGAAGACGGGAGGAAGUUUGAUUUUGACGCUUGUAAUGAAGUCCCUCCGGCUCCUCAACAGAGGAUUGAGCAUCA
B2: chr17:15229982:15230086:-|3pUTR|ENSG00000109099|msi1_unk|FALSE|overlapping (ssRNA)
RNA: GGGAGUUCUACAGUCCGACGAUCUCAUAAAGCCUUCAUCACUCCCACAUUUUUCUUACGGUCGGAGCAUCAGAACAAGCGUCUAGACUCCUUGGGACCGUGAGUUCCUAGAGCUUGGCUGGGUCUAGGCUGUUCUGUGCCUCCCAACAGAGGAUUGAGCAUCA
B3: ENSG00000070961:be:win_4251|3pUTR|ENSG00000070961|bound_else_gene|NA|bound_elsewhere_windowed (ssRNA)
RNA: GGGAGUUCUACAGUCCGACGAUCGUACUAAAUUUUUGCCUACAAUUUACCUUGUUAAAUAUUGUAGAUAAAUUGCUAAUACUAAUAGCCAAAUAGAUAACACUAAUGCUUUGUUUAAAAAAACGAAAAAAACAAAACAAAACACAACAGAGGAUUGAGCAUCA
B4: chr19:2853326:2853433:+|CDS|ENSG00000186300|unk|total|mutant (ssRNA)
RNA: GGGAGUUCUACAGUCCGACGAUCCAAUGUGGGAAAACUUUCAAUUGGCCCAUAUCUUUACGAAAACAUAUGAGAACACAUACCCGAGAGAAACCCUAUGAAUGUAAGCAGUGUGGGAAAGCCUUCAGCUUGUCUGCUUGCUUUCAACAGAGGAUUGAGCAUCA
B5: chr3:193274788:193275041:-|three_prime_utr|ENSG00000187527|control|control|control (ssRNA)
RNA: GGGAGUUCUACAGUCCGACGAUCUCUCCAUUCAAGCAUUCAAAGUAUAUUUUCAAUGAAUUAAACCUUGCAGCAAGGGACCUUAGAUAGGCUUAUUCUGACUGUAUGCUUUACCAAUGAGAGAAAAAAAUGCAUUUCCUGUAUCAACAGAGGAUUGAGCAUCA
B6: chr16:1943973:1944836:-|three_prime_utr|ENSG00000140986|control|control|control (ssRNA)
RNA: GGGAGUUCUACAGUCCGACGAUCUUCCUGCGAGGUCUCAGAGCGCUGUGUAACCGCCCAAGGGGUUCACCUUGCCUGCUGCCUAGACAAAGCCGAUUCAUUAAGACAGGGGAAUUGCAAUAGAGAAAGAGUAAUUCACACAGACAACAGAGGAUUGAGCAUCA
B7: chr8:132572308:132572480:-|CDS|ENSG00000129295|control|control|control (ssRNA)
RNA: GGGAGUUCUACAGUCCGACGAUCGCACAUGGAGAAACUAGAAGUAGACCCUAGCAAGCACUCAUUCCCUGAUGUGACUAACAUAGUUCAAGAGAAAAAACACACACCCAGAAGACGACCUGAACCCAAAAUUAUACCAAGUGACAACAGAGGAUUGAGCAUCA
B8: chr14:39095999:39096113:-|CDS|ENSG00000100934|unk|FALSE|bound_elsewhere (ssRNA)
RNA: GGGAGUUCUACAGUCCGACGAUCACAAUGACAACCUAUUUGGAAUUCAUUCAACAAAAUGAAGAACGAGAUGGAGUCCGAUUUAGUUGGAAUGUUUGGCCAUCAAGUCGACUGGAAGCUACAAGAAUGGUUGUUCCUGUGGCACAACAGAGGAUUGAGCAUCA
B9: chr1:45660537:45660647:-|5pUTR|ENSG00000159592|unk|FALSE|unique (ssRNA)
RNA: GGGAGUUCUACAGUCCGACGAUCAUUUUUGAUCUAUUACCUUGAUGACAUUAUUUGUCCACACUUGAGCCCAUCUGUCUUUCUAGCUAUGACCUUGUUAUGAACAGUAUUUGCACUCGGUGCAAAUAUCCAUGUCUUACCUAACAACAGAGGAUUGAGCAUCA
B10: ENSG00000107863:be:win_51|CDS|ENSG00000107863|bound_else_gene|NA|bound_elsewhere_windowed (ssRNA)
RNA: GGGAGUUCUACAGUCCGACGAUCCAAGGCCUGCGAGGUCUCAAAAAAUAAAGAUGGAAAAGAACAAAGUGAAACUGUAUCACUGUCUGAAGAUGAAACAUUCUCCUGGCCAGGUCCCAAAACAGUUACGUUGAAAAGAACAUCCAACAGAGGAUUGAGCAUCA
B11: chr13:108229279:108229380:+|CDS|ENSG00000139826|unk|total|mutant (ssRNA)
RNA: GGGAGUUCUACAGUCCGACGAUCGCUAACCGCCUUGGCUUCAUGGUCUUGGGCUCUCUGCCGUAUUUCUCUUUUACCUUUAACCGUGACUUUUCAUCUGUAUGGAGGCAUUAUCUUACUUUUGUUAAUAUUCAUAUCAACCGCCAACAGAGGAUUGAGCAUCA
B12: chr7:95294748:95294849:+|3pUTR|ENSG00000158528|msi1|total|mutant (ssRNA)
RNA: GGGAGUUCUACAGUCCGACGAUCGAGAAAGCCGACAGAAUCAGCUUCUCCUGGAAAGUGAAAGCAUCAAGUUCUAUUUAUGGCCGACAGAGGGUCCUUAUUUGCUUGUCCGUGGUGUCUAUGUGGGCCUAUUGAGGGAAUGGUCAACAGAGGAUUGAGCAUCA
B13: chr1:156672197:156672316:-|CDS|ENSG00000132688|unk|total|mutant (ssRNA)
RNA: GGGAGUUCUACAGUCCGACGAUCGACAUUGCAAUCCCUGCAAAAGGAGAAUCAAGAACUAAUGAAAUCUCUUGAAGGUAAUCCCGAGACAUUUUUAUUUCCAGGAACGGAAAAUCAAGAAUCCGUAAGUUCUCUGCAAGAGAACAACAGAGGAUUGAGCAUCA
B14: chr16:74621626:74621727:-|3pUTR|ENSG00000168411|msi1|FALSE|unique (ssRNA)
RNA: GGGAGUUCUACAGUCCGACGAUCCAUCUCAAAAAAAACAAACAAACAAAAAAAAACCCUGAUGCCAUUCCCAGUCCCCGUUGUAGGACAUCACAUUUAUAAAUCCAGGCUUUAGUCUUCUGGGCUCCACCAGUCUCUGCCCCACAACAGAGGAUUGAGCAUCA
B15: ENSG00000136451:be:win_3401|3pUTR|ENSG00000136451|bound_else_gene|NA|bound_elsewhere_windowed (ssRNA)
RNA: GGGAGUUCUACAGUCCGACGAUCAUGUAAACAUGCCCUAUGUUUGUGCCUUUUAAUUAGUUUGUCUCAAUAAACAAAAUGUAGAGAAAAAUAUGUAGCUAUGACUUUGUUACAACUGUUCUUAUCCACAGUACAAAAAUGGUUCAACAGAGGAUUGAGCAUCA
B16: chr4:41699229:41699330:+|3pUTR|ENSG00000064042|msi1|total|mutant (ssRNA)
RNA: GGGAGUUCUACAGUCCGACGAUCGAUUACAUGAAUAUUGCACAUUCCCUUCUGGUUUCACAAACCCAUUUAUACAUAUUUCUCCGUGAGGCUCAUUGUACAUGUAUUGAAGCCCGAAUCGAGUCAAGAAAAAUAAAGCCCCAUCAACAGAGGAUUGAGCAUCA
B17: chr16:14672609:14672749:-|CDS|ENSG00000069764|control|control|control (ssRNA)
RNA: GGGAGUUCUACAGUCCGACGAUCGGCAGAGAACAAAUGCCAAGAACUGUUGUGCAAGUGUGACCAGGAGAUUGCUAACUGCUUAGCCCAAACUGAGUACAACUUAAAGUACCUCUUCUACCCCCAGUUCCUAUGUGAGCCGGACAACAGAGGAUUGAGCAUCA
B18: chr2:152649661:152649762:+|3pUTR|ENSG00000157827|msi1|total|mutant (ssRNA)
RNA: GGGAGUUCUACAGUCCGACGAUCCUACAAACCGACAACGUUGGCAUGUUCUUUUCUGUUUGUCUAUUAAUGGGCCUGCUUCUCCGCAAUAUCCGAAUGUUUUAUAAAAGCAAUUCAUGUUACUUUUCUGGUCUUUUCAUGGCACAACAGAGGAUUGAGCAUCA
B19: ENSG00000198589:be:win_9601|3pUTR|ENSG00000198589|bound_else_gene|NA|bound_elsewhere_windowed (ssRNA)
RNA: GGGAGUUCUACAGUCCGACGAUCUAAAUUCUUUGUAUGUUGUGAACUUUGAUCUCUAUUUCUCUUGCAACAGACUUCAAGUGGUCCCUCUUUUUUUCCUACACACUCAGCUCUUCUCUAAAAGCAAGGAUUUGGAAUGAACAACAACAGAGGAUUGAGCAUCA
B20: chr12:54238554:54238587:-|3pUTR|ENSG00000094916|msi1_unk|total|mutant (ssRNA)
RNA: GGGAGUUCUACAGUCCGACGAUCGGGAGCACCCAUUUUAAACCUGGAGAGAACCAUGAUGUUUUCUUCUUCAAAUAACAAUCCCGUUUUUUUUCCCCCAGUACUAAAAUUGUAUUGUCUUUCAGACAAUAUAAUUUUUAUUUACAACAGAGGAUUGAGCAUCA
B21: chr6:117694021:117694122:+|CDS|ENSG00000153989|msi1|FALSE|unique (ssRNA)
RNA: GGGAGUUCUACAGUCCGACGAUCGCUGUCUCCGGAAGAUGGAAAAGCAGAUAUUGUAAGAGCUGCUCAGGACUUUUGCCAGUUAGUAGCCCAGAAGCAAAAGAGACCCACAGAUUUGGAUGUAGAUACGUUAGCCAGUUUACUCAACAGAGGAUUGAGCAUCA
B22: chr6:41028375:41028595:-|CDS|ENSG00000124602|control|control|control (ssRNA)
RNA: GGGAGUUCUACAGUCCGACGAUCUGAGGAGCAGAACGGCAGCCUGCAGGAGCUGCACUACCUCAUGACCGUCAUGGAGCGGCUAGACUGCGCCUCCGCCAUCCAGAACUACCUGAGUGGGACACACGGCGGCAGCCCAGGCCCCAACAGAGGAUUGAGCAUCA

Each binder was assayed against T1, UNK ZnF1-6 (called full-length) (human, UniProt Q9C0B0 30-357) (assay: nsRBNS (natural sequence RNA bind-n-seq); RBNS binding buffer (assumed for nsRBNS): 25 mM Tris pH 7.5, 150 mM KCl, 3 mM MgCl2, 0.01% Triton X-100, 500 ug/ml BSA, 20 U/ml SUPERase-In, 4 C; UNK is unkempt and MSI1 is Musashi-1; names of the RNAs are library labels; protein concentration not given here; high values mean tight binding).
T1 sequence: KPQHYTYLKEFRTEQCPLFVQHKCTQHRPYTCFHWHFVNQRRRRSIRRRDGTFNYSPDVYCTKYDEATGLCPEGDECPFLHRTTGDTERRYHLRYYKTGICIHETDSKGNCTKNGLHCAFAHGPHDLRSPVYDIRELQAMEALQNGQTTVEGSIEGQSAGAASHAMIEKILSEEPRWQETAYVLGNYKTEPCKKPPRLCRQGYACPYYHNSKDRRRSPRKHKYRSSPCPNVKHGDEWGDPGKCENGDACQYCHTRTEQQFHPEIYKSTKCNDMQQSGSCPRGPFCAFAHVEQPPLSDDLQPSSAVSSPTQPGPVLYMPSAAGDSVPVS

Row | Binder | binding signal [enrichment R]
1 | B1 | 0.661
2 | B2 | 0.742
3 | B3 | 1.41
4 | B4 | 0.344
5 | B5 | 0.417
6 | B6 | 0.744
7 | B7 | 1.37
8 | B8 | 0.311
9 | B9 | 0.413
10 | B10 | 0.505
11 | B11 | 0.806
12 | B12 | 0.626
13 | B13 | 0.177
14 | B14 | 1.16
15 | B15 | 1.79
16 | B16 | 0.474
17 | B17 | 0.625
18 | B18 | 0.502
19 | B19 | 0.433
20 | B20 | 0.639
21 | B21 | 1.36
22 | B22 | 0.806
